Test results reported in PubChem BioAssay (NCATS).
Several values for one entry are separate records, joined by “and”; a condition that tells them apart may be missing. Equal entries are not always repeated. The inconclusive results got no clear call from the source; some entries with a clear call stand among them for comparison. Potencies beside an inconclusive call are fits to weak or partial responses and may not hold up. Activity calls are given as the source filed them. The call rests on the fitted dose curve; in most records, active means well fitted activation curve with a large enough effect; inconclusive means small, poorly fitted or top-dose-only effect; inactive means no such curve, though single readings can be large or run the other way.

What follows are compounds tested against Cellular tumor antigen p53 (Homo sapiens) (UniProt P04637) (assay: Primary qHTS for small molecule compounds that upregulate eGFP-tagged delta133p53alpha (in N-terminal) cells. (AID 2060322;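 further: cells pre-induced with doxycycline then dosed without doxycycline; nearly all actives have a fitted effect of over 75% in size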;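 on activation: series mostly up to about 56 µM; 0% = DMSO vehicle and 100% = reference activator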)). Settings: NCI-H358 eGFP-delta133p53alpha fluorescence, 24 h; activation: hits give high values.
Chain of UniProt P04637 (P04637 whole entry, looked up): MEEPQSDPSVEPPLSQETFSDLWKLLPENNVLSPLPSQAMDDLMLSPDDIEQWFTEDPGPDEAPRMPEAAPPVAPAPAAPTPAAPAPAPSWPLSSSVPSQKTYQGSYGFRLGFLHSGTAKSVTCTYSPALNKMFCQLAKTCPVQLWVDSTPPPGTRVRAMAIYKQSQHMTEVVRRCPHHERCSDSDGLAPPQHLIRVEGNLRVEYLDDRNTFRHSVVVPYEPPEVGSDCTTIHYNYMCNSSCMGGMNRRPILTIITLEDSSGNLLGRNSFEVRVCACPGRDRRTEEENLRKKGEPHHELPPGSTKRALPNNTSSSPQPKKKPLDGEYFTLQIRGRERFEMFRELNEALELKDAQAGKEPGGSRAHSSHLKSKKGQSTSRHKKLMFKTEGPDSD
In short: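 NCI-H358 cells pre-induced 24 h with 10 ng/ml doxycycline for eGFP-delta133p53alpha, plated dox-free and exposed 24 h at 37C to titrated compounds. Fixed, Hoechst-stained; gated GFP peak intensity by laser scanning cytometry, normalized to DMSO (0%) and 57.5 uM 5-azacytidine (100%).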
Potency means the concentration at half of the fitted maximal effect; tags describe the fitted curve by direction and shape.

Question: How did the Potency turn out when `NCC1CCC(C(=O)Oc2ccc(CCC(=O)O)cc2)CC1` (stereo not drawn) was run?
Answer: inconclusive: 0.0049 µM [activator, single point]

Question: How did the Potency turn out when `C=C1C(=O)O[C@H]2[C@@H]1CCC(C)=CCC[C@@]1(C)O[C@@H]21` was run?
Answer: active: 19.3 µM

Question: `CC(=O)N1CCN(C(=O)Cc2ccc(Nc3ncc(F)c(Nc4ccc(C(=O)Nc5ccccc5Cl)cc4)n3)cc2)CC1` was tested. Which Potency did it give?
Answer: active: 13.5 µM

Question: Which activation does the source give for `CC(=O)CCCCn1c(=O)c2c(ncn2C)n(C)c1=O` here?
Answer: inactive: -15.1% and inactive: -0.333% and inactive: -11.4%

Question: How did the activation turn out when `Nc1ccn([C@@H]2O[C@H](CO)[C@H](O)C2(F)F)c(=O)n1` was run?
Answer: inactive: 10.5%

Question: For `CN(C)CCOC(C)(c1ccccc1)c1ccc(Cl)cc1` (stereo not drawn), which Potency is on record?
Answer: inconclusive: 33.8 µM [activator, single point]

Question: How did the Potency turn out when `Cc1c(NC(=O)c2cccnc2)c(=O)n(-c2ccccc2)n1C` was run?
Answer: inconclusive: 43.7 µM [activator, single point]

Question: With `O=C(C[C@@H]1CC=CCCC(=O)O[C@H](c2ccccc2)CNC1=O)NCc1ccc(Cl)cc1` as the compound, how does the activation read?
Answer: inconclusive: 31.9% [activator]

Question: `CCOC(=O)C1=C[C@]2(CC)CCCN3CCc4c(n1c1ccccc41)[C@@H]32` was tested. Which Potency did it give?
Answer: inconclusive: 43.2 µM [activator, single point]

Question: How did the activation turn out when `c1ccc(OCc2ccc(CCCN3CCOCC3)cc2)cc1` was run?
Answer: inactive: -7.53%

Question: Which Potency does the source give for `Cn1cc(-c2cnn3c(N)c(Br)c([C@H]4CCCNC4)nc23)cn1` here?
Answer: inconclusive: 6.85 µM [activator, partial curve, poor fit]

Question: `CC1=C(CO)C(=O)O[C@@H]([C@@H](C)[C@H]2CC[C@H]3[C@@H]4C[C@H]5O[C@]56[C@@H](O)C=CC(=O)[C@]6(C)[C@@H]4CC[C@]23C)C1` was tested. Which Potency did it give?
Answer: active: 3.85 µM

Question: `CN1CCCC(n2nc(Cc3ccc(Cl)cc3)c3ccccc3c2=O)CC1` (stereo not drawn) was tested. Which activation did it give?
Answer: inactive: 10.9% and inactive: 17.6%

Question: `C=C1C(=O)OC2C(OC(=O)C=C(C)C)C(C)=C3C(=O)C=C(C)C3C(O)C12` (stereo not drawn) was tested. Which Potency did it give?
Answer: active: 14.8 µM

Question: How did the Potency turn out when `COc1cccc(-c2cn(-c3ccc(CCN4CCC(O)CC4)cc3)c3ncnc(N)c23)c1` was run?
Answer: active: 6.01 µM

Question: With `CC[C@@H](C)[C@H]1O[C@]2(CC[C@H]1C)C[C@@H]1C[C@@H](CC=C(C)[C@@H](O[C@H]3C[C@H](OC)[C@@H](O[C@H]4C[C@H](OC)[C@@H](O)[C@H](C)O4)[C@H](C)O3)[C@@H](C)C=CC=C3CO[C@@H]4[C@H](O)C(C)=C[C@@H](C(=O)O1)[C@]34O)O2` as the compound, how does the activation read?
Answer: inactive: -12.1%

Question: How did the Potency turn out when `O=C1NC(=O)C(=Cc2ccc(-c3ccc(F)cc3O)o2)S1` was run?
Answer: inconclusive: 43.2 µM [activator, single point]

Question: For `COc1cc(NC(C)CCCN)c2ncccc2c1` (stereo not drawn), which Potency is on record?
Answer: active: 24.6 µM

Question: How did the Potency turn out when `COc1cc(C=CC(=O)CC(=O)C=Cc2ccc(O)c(OC)c2)ccc1O` was run?
Answer: active: 39.5 µM

Question: With `C=C1C(=O)O[C@@H]2C[C@H](C)[C@@H]3CC(=O)C(C)=C3C[C@H]12` as the compound, how does the Potency read?
Answer: inconclusive: 6.01 µM [activator, single point]

Question: For `CC12CCC3C1C(c1c(cc(O)c(C(=O)c4ccccc4)c1O)O2)C3(C)C` (stereo not drawn), which Potency is on record?
Answer: inconclusive: 26.2 µM [activator, single point]

Question: With `O=c1c(-c2ccccc2)c1-c1ccccc1` as the compound, how does the Potency read?
Answer: active: 30.9 µM

Question: `Clc1ccc(-c2csc(NN=C3CCCC3)n2)cc1` was tested. Which Potency did it give?
Answer: inconclusive: 10.9 µM [activator, full curve, poor fit]

Question: `COc1cc(C=CC(=O)O)ccc1O` was tested. Which activation did it give?
Answer: inactive: -12.5%

Question: For `CC(C)CC(=O)O[C@@H]1O[C@H](CO)[C@@H](O[C@H]2O[C@H](C)[C@@H](N[C@H]3C=C(CO)[C@@H](O[C@H]4O[C@H](CO)[C@@H](O[C@H]5O[C@H](CO)[C@@H](O[C@H]6O[C@H](CO)[C@@H](O)[C@H](O)[C@H]6O)[C@H](O)[C@H]5O)[C@H](O)[C@H]4O)[C@H](O)[C@H]3O)[C@H](O)[C@H]2O)[C@H](O)[C@H]1O`, which activation is on record?
Answer: inactive: -13.7%

Question: With `CCCCc1ccc(C(=O)Nc2cc(-c3ccc(Cl)cc3)nn2-c2ccc(Cl)cc2)cc1` as the compound, how does the activation read?
Answer: inactive: 6.68%

Question: How did the Potency turn out when `C=C(C)C(=O)OC1CC2(C)OC(=CC2=O)C(=C)CC2OC(=O)C(COC)C12` (stereo not drawn) was run?
Answer: inconclusive: 16.6 µM [activator, single point]

Question: With `COc1cc2c(NC3CCN(C(C)C)CC3)nc(N3CCC(F)(F)CC3)nc2cc1OCCCN1CCCC1` as the compound, how does the Potency read?
Answer: inconclusive: 33.8 µM [activator, single point]
